B1: GPR68, Q15743 (parent)
chain: MGNITADNSSMSCTIDHTIHQTLAPVVYVTVLVVGFPANCLSLYFGYLQIKARNELGVYLCNLTVADLFYICSLPFWLQYVLQHDNWSHGDLSCQVCGILLYENIYISVGFLCCISVDRYLAVAHPFRFHQFRTLKAAVGVSVVIWAKELLTSIYFLMHEEVIEDENQHRVCFEHYPIQAWQRAINYYRFLVGFLFPICLLLASYQGILRAVRRSHGTQKSRKDQIQRLVLSTVVIFLACFLPYHVLLLVRSVWEASCDFAKGVFNAYHFSLLLTSFNCVADPVLYCFVSETTHRDLARLRGACLAFLTCSRTGRAREAYPLGAPEASGKSGAQGEEPELLTKLHPAFQTPNSPGSGGFPTGRLA

In data set [1] the parent is B1. Briefly: cAMP reporter score (Enrich2 score, wild type = 0); higher = more signal; HEK293T, FACS bins.
Variants of B1 are the subject of data set [2]. Nature of the data set: surface expression score (Enrich2 score, wild type = 0); higher = more signal; HEK293T, FACS bins.

Scores with a large standard error are left out. Not listed are two conditions whose scores span a narrow range. Read del as a deletion of the residues named and ins as an insertion between two positions. For some of these results: The data file names ogerin without a concentration.

As for Y176L, the cAMP reporter score in data set [1] (pH 5.5) is -0.717; in data set [1] (pH 6.5, modulator: ogerin) it was -1.74. Besides, in data set [2], the surface expression score was -0.606.

Turning to Y176E, the cAMP reporter score in data set [1] (pH 5.5) is -1.21; in data set [1] (pH 6) it was -1.45; in data set [1] (pH 6.5, modulator: ogerin), -0.651. Moreover, the surface expression score in data set [2] is -0.704.

Take Y176Q: the cAMP reporter score in data set [1] (pH 5.5) was -0.638; in data set [1] (pH 6.5, modulator: ogerin), -1.33. The surface expression score in data set [2] is -0.405.

For Y176R, the cAMP reporter score in data set [1] (pH 5.5) was -1.62; in data set [1] (pH 6) it was -1.34; in data set [1] (pH 6, modulator: ogerin), -1.92; in data set [1] (pH 6.5, modulator: ogerin), -1.19. For the same variant, in data set [2], the surface expression score is -0.853.

Turning to Y176N, the cAMP reporter score in data set [1] (pH 5.5) was -1.4; in data set [1] (pH 6.5, modulator: ogerin), -2.35. Also, the surface expression score in data set [2] is -0.9.

Y176S: the cAMP reporter score in data set [1] (pH 5.5) is -1.11; in data set [1] (pH 6), -1.58; in data set [1] (pH 6, modulator: ogerin), -0.86; in data set [1] (pH 6.5, modulator: ogerin), -0.936. Besides, the surface expression score in data set [2] was -0.622.

Take Y176T: the cAMP reporter score in data set [1] (pH 5.5) was -0.832; in data set [1] (pH 6), -1.57; in data set [1] (pH 6, modulator: ogerin), -1.31; in data set [1] (pH 6.5, modulator: ogerin) it was -1. Further, in data set [2], the surface expression score is -0.804.

In the case of R183_A184insG, the cAMP reporter score in data set [1] (pH 5.5) is -0.069; in data set [1] (pH 6) it was 0.009; in data set [1] (pH 6, modulator: ogerin), -0.835; in data set [1] (pH 6.5, modulator: ogerin), -0.484.

For the variant W181_Q182insGSG, the cAMP reporter score in data set [1] (pH 5.5) is 0.329; in data set [1] (pH 6), -0.139; in data set [1] (pH 6, modulator: ogerin), -0.938; in data set [1] (pH 6.5, modulator: ogerin), -1.88. For the same variant, the surface expression score in data set [2] was -1.16.

F173_H175del: the cAMP reporter score in data set [1] (pH 5.5) is -1.14; in data set [1] (pH 6), -0.915; in data set [1] (pH 6, modulator: ogerin), -1.45; in data set [1] (pH 6.5, modulator: ogerin), -1.6. Also, the surface expression score in data set [2] is -1.78.

For the variant F173del, the cAMP reporter score in data set [1] (pH 5.5) is -1.54; in data set [1] (pH 6), -1.2; in data set [1] (pH 6, modulator: ogerin), -1.58; in data set [1] (pH 6.5, modulator: ogerin), -0.994. Further, in data set [2], the surface expression score is -1.73.

For F173_E174insGSG, the cAMP reporter score in data set [1] (pH 5.5) was -0.698; in data set [1] (pH 6) it was 0.382; in data set [1] (pH 6, modulator: ogerin), -2.49; in data set [1] (pH 6.5, modulator: ogerin), -1.36. Also, in data set [2], the surface expression score stood at 0.553.

Consider I178_A180del, for which the cAMP reporter score is -1.11 in data set [1] (pH 5.5); -1.59 in data set [1] (pH 6); -1.65 in data set [1] (pH 6, modulator: ogerin); -1.59 in data set [1] (pH 6.5, modulator: ogerin). The surface expression score in data set [2] was -3.14.

As to Y176_P177insGSG, the cAMP reporter score in data set [1] (pH 5.5) is -1.38; in data set [1] (pH 6), -1.26; in data set [1] (pH 6, modulator: ogerin), -1.65; in data set [1] (pH 6.5, modulator: ogerin), -0.943. The surface expression score in data set [2] is -1.71.

In the case of H175del, the cAMP reporter score in data set [1] (pH 5.5) was -1.63; in data set [1] (pH 6) it was -0.496; in data set [1] (pH 6, modulator: ogerin), -1.57; in data set [1] (pH 6.5, modulator: ogerin), -0.573. Moreover, in data set [2], the surface expression score was -0.796.

Take R183_I185del: the cAMP reporter score was -1.94 in data set [1] (pH 5.5); -1.34 in data set [1] (pH 6); -1.93 in data set [1] (pH 6, modulator: ogerin); -1.82 in data set [1] (pH 6.5, modulator: ogerin). Moreover, the surface expression score in data set [2] is -1.52.

P177_Q179del: the cAMP reporter score in data set [1] (pH 5.5) was -1.46; in data set [1] (pH 6, modulator: ogerin) it was -1.18; in data set [1] (pH 6.5, modulator: ogerin), -1.06.

As for Q182C, the cAMP reporter score in data set [1] (pH 5.5) was -0.186; in data set [1] (pH 6) it was -0.764; in data set [1] (pH 6, modulator: ogerin) it was -0.917; in data set [1] (pH 6.5, modulator: ogerin), -0.704. Further, in data set [2], the surface expression score is -1.62.

On to Q182E, for which the cAMP reporter score in data set [1] (pH 5.5) is 0.019; in data set [1] (pH 6), 0.096; in data set [1] (pH 6, modulator: ogerin) it was -0.372; in data set [1] (pH 6.5, modulator: ogerin), 0.753. Further, in data set [2], the surface expression score was -0.583.

Turning to Q182S, the cAMP reporter score is -0.388 in data set [1] (pH 5.5); -0.43 in data set [1] (pH 6); -1.02 in data set [1] (pH 6, modulator: ogerin). For the same variant, the surface expression score in data set [2] is 0.874.

With Q182V, the cAMP reporter score in data set [1] (pH 5.5) is 1.47; in data set [1] (pH 6), 0.072; in data set [1] (pH 6, modulator: ogerin) it was 0.147; in data set [1] (pH 6.5, modulator: ogerin) it was -0.739. Also, the surface expression score in data set [2] is -0.613.

Regarding Q182P, the cAMP reporter score in data set [1] (pH 5.5) is -1.66; in data set [1] (pH 6) it was -1.23; in data set [1] (pH 6, modulator: ogerin) it was -0.929; in data set [1] (pH 6.5, modulator: ogerin) it was -1.18. Further, the surface expression score in data set [2] is -0.261.

Turning to Q182R, the cAMP reporter score in data set [1] (pH 5.5) is 1.27; in data set [1] (pH 6) it was 4.79; in data set [1] (pH 6, modulator: ogerin), -0.189; in data set [1] (pH 6.5, modulator: ogerin), 3.64. For the same variant, in data set [2], the surface expression score was -0.6.

Turning to Q182L, the cAMP reporter score in data set [1] (pH 5.5) was 0.357; in data set [1] (pH 6), -1.09; in data set [1] (pH 6, modulator: ogerin) it was -0.363; in data set [1] (pH 6.5, modulator: ogerin) it was -0.949.

With Q182H, the cAMP reporter score amounted to 0.056 in data set [1] (pH 5.5); 0.519 in data set [1] (pH 6); 0.703 in data set [1] (pH 6, modulator: ogerin); 1.37 in data set [1] (pH 6.5, modulator: ogerin). Moreover, the surface expression score in data set [2] came out at 1.26.

For Q182A, the cAMP reporter score in data set [1] (pH 5.5) was -0.119; in data set [1] (pH 6), 0.156; in data set [1] (pH 6, modulator: ogerin) it was -0.383; in data set [1] (pH 6.5, modulator: ogerin) it was -1.08. In data set [2], the surface expression score was -0.211.

Consider Q182T, for which the cAMP reporter score in data set [1] (pH 5.5) was 0.248; in data set [1] (pH 6), 0.065; in data set [1] (pH 6, modulator: ogerin) it was 0.199; in data set [1] (pH 6.5, modulator: ogerin) it was -0.837. The surface expression score in data set [2] was 0.14.

Consider Q182I, for which the cAMP reporter score in data set [1] (pH 5.5) is 0.373; in data set [1] (pH 6), -0.377; in data set [1] (pH 6, modulator: ogerin), -0.626; in data set [1] (pH 6.5, modulator: ogerin) it was -0.41. Moreover, in data set [2], the surface expression score was -2.7.

For the variant Q182D, the cAMP reporter score was -0.671 in data set [1] (pH 5.5); -1.25 in data set [1] (pH 6); -1.72 in data set [1] (pH 6, modulator: ogerin); -0.989 in data set [1] (pH 6.5, modulator: ogerin). Moreover, the surface expression score in data set [2] is -0.06.

Turning to Q182N, the cAMP reporter score was -0.296 in data set [1] (pH 5.5); -0.1 in data set [1] (pH 6); -0.965 in data set [1] (pH 6, modulator: ogerin); -0.35 in data set [1] (pH 6.5, modulator: ogerin). The surface expression score in data set [2] was found to be 0.429.

On to Q182K, for which the cAMP reporter score came to 0.317 in data set [1] (pH 5.5); 2.86 in data set [1] (pH 6); 0.546 in data set [1] (pH 6, modulator: ogerin); 3.26 in data set [1] (pH 6.5, modulator: ogerin). In addition, in data set [2], the surface expression score was -0.802.

Turning to Q182G, the cAMP reporter score in data set [1] (pH 5.5) was 0.572; in data set [1] (pH 6), -0.656; in data set [1] (pH 6, modulator: ogerin) it was -0.25; in data set [1] (pH 6.5, modulator: ogerin), -0.974. Moreover, the surface expression score in data set [2] turned out to be 0.15.

Source of the values: the GPR68 mutational scans of Howard et al. (2025).
